# Out of some 360,000 compounds screened, about 25,000 (6.9%) were called active. This list was built around the results that the source calls inconclusive (neither active nor inactive); the mix of calls is not that of the screen. Calls follow the shape of the dose curve; as a rule, active = well fitted inhibition curve with a large enough effect; inconclusive = small, poorly fitted or top-dose-only effect; inactive = flat fitted curve, though single readings scatter. Where the call is inconclusive, the potency comes from a doubtful curve fit.
# Molecular target: Luciferin 4-monooxygenase (Photinus pyralis) (UniProt P08659)
# UniProt P08659, sequence (P08659 whole entry, looked up): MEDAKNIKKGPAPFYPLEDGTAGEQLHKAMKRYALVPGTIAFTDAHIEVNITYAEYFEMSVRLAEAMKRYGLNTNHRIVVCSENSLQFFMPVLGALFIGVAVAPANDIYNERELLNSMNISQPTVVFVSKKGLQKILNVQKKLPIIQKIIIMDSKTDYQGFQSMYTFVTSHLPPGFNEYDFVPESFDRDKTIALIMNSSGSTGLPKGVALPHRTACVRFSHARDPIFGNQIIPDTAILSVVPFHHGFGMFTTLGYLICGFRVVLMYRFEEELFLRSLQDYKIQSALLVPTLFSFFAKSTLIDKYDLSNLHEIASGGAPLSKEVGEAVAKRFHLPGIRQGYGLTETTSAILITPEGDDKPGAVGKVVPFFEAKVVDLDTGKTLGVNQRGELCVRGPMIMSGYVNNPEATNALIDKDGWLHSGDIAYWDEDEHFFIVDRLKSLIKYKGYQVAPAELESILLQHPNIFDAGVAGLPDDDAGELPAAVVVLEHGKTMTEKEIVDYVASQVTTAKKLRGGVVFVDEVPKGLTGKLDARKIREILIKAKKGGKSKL
# Assay: qHTS profiling assay for firefly luciferase inhibitor/activator using purifed enzyme and Km concentrations of substrates (counterscreen for miR-21 project); also: nearly all actives have a fitted effect of over 55% in size;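 as to activity change, negative = inhibition: plate controls were vehicle for no effect and reference inhibitor for full effect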
# Conditions: purified FLuc, luminescence inhibition; series mostly up to 57.5 µM; activity change, negative = inhibition: at the top concentration
# Summary of the method: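 Biochemical qHTS of compounds, final roughly 60 µM downward over six points, against 10 nM purified firefly luciferase using Km concentrations of substrates (10 uM D-luciferin, 10 uM ATP) in Tris acetate pH 7.5 buffer; luminescence output.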
# Potency is read from the fitted curve at half-maximal effect; tags tell the direction and shape of the fitted curve.
SMILES,Potency,"activity change, negative = inhibition"
Cc1cc(C)c2c(N)c(C(=O)N/N=C/c3ccccc3)sc2n1,active: 3.38 µM,
Cc1cc2nc(-c3ccc(SCc4ccccn4)nc3)[nH]c2cc1C,active: 5.36 µM,
COc1ccc(S(=O)(=O)/N=C2\C=C(Nc3ccc(O)cc3)C(=O)c3ccccc32)cc1,"inconclusive: 26.9 µM [inhibitor, single point]",
Cc1ccc(OCC(=O)Oc2c(C)cccc2C)cc1C,,inactive: -13.2%
CC(OC(=O)/C(C#N)=C/c1ccc(N(C)C)cc1)C(=O)N(C)c1ccccc1 (centres undefined),"inconclusive: 19 µM [inhibitor, partial curve]",
CCOc1ccc(NC(=O)c2sccc2-n2cccc2)cc1,,inactive: -16.7%
COc1ccc(C(=O)COC(=O)CCCC(=O)Nc2cc(C(F)(F)F)ccc2Cl)cc1,active: 2.13 µM,
COC(=O)c1cc(Cl)ccc1NC(=O)CSc1ncc(S(=O)(=O)c2ccc(Br)cc2)c(=O)[nH]1,active: 10.7 µM,
CCOC(=O)C1=C(CSc2nc(-c3ccccc3)ccc2C#N)OC(N)=C(C#N)C1c1cccnc1 (centres undefined),"inconclusive: 30.1 µM [inhibitor, single point]",
COc1ccccc1CC(=O)Nc1ccc(Cl)cc1C(=O)O,"inconclusive: 9.53 µM [inhibitor, partial curve]",
O=C(CSC1=NCCS1)Nc1cccc2ccccc12,,inactive: -18.9%
CCn1c(CN2CCCCCC2=O)nnc1SCc1cnc(-c2ccccc2)s1,"inconclusive: 37.9 µM [inhibitor, partial curve, poor fit]",
COc1ccc(/C=C/C(=O)NC(=S)N2CCN(c3ccccc3OC)CC2)cc1,"inconclusive: 1.51 µM [inhibitor, full curve, poor fit]",
CCCCn1c(SCC(=O)Nc2ccc(OCC)cc2)nc2ccsc2c1=O,"inconclusive: 37.9 µM [inhibitor, partial curve, poor fit]",
CC(C)[C@@H]1CC[C@@H](C)C[C@H]1OC(=O)C[n+]1cc(-c2ccc(Cl)cc2)n2c1CCCCC2,,inactive: -1.17%
CC(=O)c1ccc(N2CCN(C(=O)CCc3nnc4n(C)c(=O)c5sccc5n34)CC2)cc1,,inactive: -3.37%
CCOc1ccc(NC(=O)N2CCc3ccccc3C2)cc1,"inconclusive: 15.1 µM [inhibitor, partial curve]",
CCOC(=O)c1cc(S(=O)(=O)NCc2cccc(Cl)c2)[nH]n1,"inconclusive: 42.6 µM [inhibitor, partial curve, poor fit]",
O=C(O)/C=C\C(=O)Nc1ccc(N2CCN(c3ccc(F)cc3)CC2)cc1,"inconclusive: 19 µM [inhibitor, partial curve]",
S=C(NCCc1ccccc1)N1CCc2ccccc2C1,"inconclusive: 21.3 µM [inhibitor, single point]",
CCc1cc(C(=O)Nc2ccccc2N2CCOCC2)sc1C,"inconclusive: 19 µM [inhibitor, partial curve]",
Cc1ccc(C2=NN=C(NC(=O)CSc3nncn3C)SC2)cc1,active: 2.39 µM,

SMILES,Potency,"activity change, negative = inhibition"
Cc1cc2nccc(-c3ccc(Cl)cc3Cl)n2n1,"inconclusive: 23.9 µM [inhibitor, single point]",
CCOc1ccccc1C(=O)OCC(=O)Nc1ccc(N2CCCCC2)cc1,"inconclusive: 30.1 µM [inhibitor, partial curve, poor fit]",
O=C(COC(=O)c1ccco1)NC1CCCCC1,"inconclusive: 23.9 µM [inhibitor, partial curve]",
CCOC(=O)c1ccc(NC(=O)CSc2nnc(-c3ccncc3)n2C)cc1,"inconclusive: 23.9 µM [inhibitor, single point]",
C=C(C)CN(CC)C(=O)CCc1nnc(CCCc2ccccc2)o1,active: 12 µM,
CC(=O)c1sc(NC(=O)COc2ccccc2)nc1C,"inconclusive: 13.5 µM [inhibitor, partial curve]",
CCOc1cc(/C=N/NC(=O)c2ccc(-c3csc(Nc4ccc(C)cc4)n3)cc2)ccc1OCC(=O)O,"inconclusive: 15.1 µM [inhibitor, partial curve]",
Cc1ccc(NC(=O)CNCc2ccccc2)c(Br)c1,"inconclusive: 26.9 µM [inhibitor, single point]",
Fc1cccc(NC(=S)N2CCN(c3ccccn3)CC2)c1,,inactive: 11.8%
O=C(Nc1nnc(SCc2ccc(F)cc2)s1)c1cccnc1Cl,"inconclusive: 23.9 µM [inhibitor, single point]",
CC1=NN(c2nc3ccccc3[nH]2)C(=O)C1Cc1ccccc1 (centres undefined),"inconclusive: 21.3 µM [inhibitor, single point]",
COc1ccc(C)cc1NC(=O)c1nn(-c2ccccc2)cc1OC,"inconclusive: 26.9 µM [inhibitor, partial curve, poor fit]",
COc1ccc(-c2noc(CCCC(=O)NCC3CCCO3)n2)cc1 (centres undefined),,inactive: -4.44%
COc1cccc(C2CC(=O)N3CN(C4CCCCC4)CSC3=C2C#N)c1 (centres undefined),"inconclusive: 16.9 µM [inhibitor, partial curve]",
O=C(Cn1cnc2ccccc21)Nc1ccc(SC(F)F)cc1,"inconclusive: 37.9 µM [inhibitor, partial curve, poor fit]",
CCOc1ccc(-c2cccc(NC(=O)COc3ccc(Cl)cc3)c2)nn1,active: 13.5 µM,
CNC(=O)C(=O)N/N=C/c1ccc(Br)cc1,"inconclusive: 23.9 µM [inhibitor, partial curve, poor fit]",
N#Cc1c(NC(=O)C2CC(c3ccccc3Cl)=NO2)sc2c1CCC2 (centres undefined),"inconclusive: 37.9 µM [inhibitor, single point]",
COc1cccc(NC(=O)c2cc3c(=O)n(Cc4cccnc4)ccc3nc2C)c1,,inactive: -2.29%
Cc1n[nH]c(=S)n1/N=C/c1ccc(OCc2ccc(Cl)cc2Cl)cc1,"inconclusive: 15.1 µM [inhibitor, partial curve]",
O=C(Nc1ccc(NC(=O)c2cccs2)cc1)c1ccc2c(c1)OCO2,,inactive: 1.94%
O=[N+]([O-])c1ccccc1/C=C/C=N/n1c(-c2ccco2)n[nH]c1=S,"inconclusive: 37.9 µM [inhibitor, partial curve, poor fit]",
